Assay results reported in the supplement of paper PMC11098506.

B1: VDAC2; numbered along this chain (parent)
chain: MATHGQTCARPMCIPPSYADLGKAARDIFNKGFGFGLVKLDVKTKSCSGVEFSTSGSSNTDTGKVTGTLETKYKWCEYGLTFTEKWNTDNTLGTEIAIEDQICQGLKLTFDTTFSPNTGKKSGKIKSSYKRECINLGCDVDFDFAGPAIHGSAVFGYEGWLAGYQMTFDSAKSKLTRNNFAVGYRTGDFQLHTNVNDGTEFGGSIYQKVCEDLDTSVNLAWTSGTNCTRFGIAAKYQLDPTASISAKVNNSSLIGVGYTQTLRPGVKLTLSALVDGKSINAGGHKVGLALELEA

Variants of: B1
Assay: log2 fold difference of barcode abundance, FLAG-VDAC2-high vs FLAG-VDAC2-low sorted fraction (expression level) (log2 ratio); higher = higher VDAC2 variant expression
Details: Mcl1-/- Bax-/- Vdac2-/- MEF
Method: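 Deep mutational scan of human VDAC2 (FLAG-tagged) with single amino acid substitutions at positions Q165–F180, each barcoded clone expressed in Mcl1/Bax/Vdac2-deficient MEFs. Cells were stained with PE anti-FLAG and sorted into FLAG-high and FLAG-low fractions, and barcodes were counted by Illumina sequencing. The score is log2(CPM) in FLAG-high minus log2(CPM) in FLAG-low, per barcode; barcodes of the same variant are averaged.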

log2 fold difference: each site, then its substitutions
F168: K 0.103
K174: H 0.216, D 1.05, T 0.405, E 0.469, F 1.74, R 1.01, I 0.942, L 0.744, C 0.628, Y 1.33, S 1.22, Q 1.19, G 0.572, M 0.817, A 0.349, N 0.234, P -0.239, V 1.24, W 0.189
N179: A 2.16, R 1.53, S 1.17, G 1.31, W -0.521, D 0.762, K 1.71, C 1.9, P -0.116, E 2.48, Q 0.935, V 0.173, T 1.66, M 1.21, Y 0.571, L 0.81, I 0.827, F 1.28, H 2.09
L175: Y 0.996, M -0.24, Q 2.57, E 0.898, P 0.99, W -0.202, K 1.09, D -0.428, T 0.632, N 1.22, H 0.84, I 2.46, S 0.642, C 0.471, F 1.27, V 1.16, A 1.56, G 1.52, R 0.512
T176: L 0.964, H -0.743, I 0.51, K 2.13, D 1.19, N 1.25, V 1.86, Q 1.11, G 0.957, P 0.905, R 1.21, Y 1.41, F 1.37, A 1.25, W 0.487, C 1.33, M 2.24, S 1.5, E 0.745
F180: H 0.107, R -1.19, I 1.22, Q 0.421, K -2.72, M 0.909, A 0.51, Y 1.46, L 0.637, E -0.934, T -0.223, C 0.76, D -1.87, P -0.923, N -1.23, W 1.08, G -0.502, V 0.933, S -0.373
S173: Q 1.7, T 1.07, C 1.61, R 0.943, V 1.31, M 0.451, L 0.722, F -0.212, I 1.86, W 0.707, K -0.351, G 1.57, E 2.12, P 1.29, N 0.947, D 0.578, H 0.479, Y 0.581, A 1.04
S170: Y 1.03, R 0.798, V 0.727, G 0.906, T 0.714, N 2.8, W 2.17, H 0.537, A 1.43, L 0.822, Q 2.12, F 0.787, P 0.561, E 1.51, C 0.236, I 0.852, M 1.45, K 2
M166: A 1.04, C 2.5, D -1.21, Q 0.582, N 0.228, R -0.553, H 1.21, E -2, L 0.98, P 1.02, S 0.274, G 1.74, I 1.49, F 3.1, V 1.92, T 0.632, W -0.371, K -0.863, Y 2.11
